# PubChem BioAssay AID1508642 (National Center for Advancing Translational Sciences (NCATS), 2021)
# About 200 (0.47%) of roughly 43,000 compounds were called active. Another 12% or so got no clear call; they are omitted. Calls come from the whole dose curve; as a rule, active = well fitted cell-killing curve with a large enough effect; inconclusive = small, poorly fitted or top-dose-only effect, or effect the other way; inactive = flat fitted curve, though single readings scatter. The list shows a part of the results.
# Assay: Cell viability qHTS assay in S16 Pmp22-F2sN cells; note: nearly all actives have a fitted effect of over 65% in size
# Conditions: S16 Pmp22-F2sN Schwann cells (luciferase reporters placed in the Pmp22 gene) viability, CellTiter-Glo, 24 h; series mostly up to 57.5 µM; activity change, negative = cytotoxicity: at the top concentration
# Procedure, shortened: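 S16 Schwann cells carrying the Pmp22-F2sN reporter, seeded in 1536-well format, were exposed to library compounds for 24 h at 37C. Viability was read as CellTiter-Glo luminescence after 15 min at room temperature.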
# % is set by controls: 0 for no effect and ±100 for the full control effect.
row,Structure (SMILES),"activity change, negative = cytotoxicity"
1,O=C(NCCc1ccccc1)c1cc2sccc2n1Cc1ccc(F)cc1,inactive: 3.1%
2,CNC(=O)c1c(NC(=O)c2ccc(S(=O)(=O)N3CCCC(C)C3)cc2)sc2c1CCC2 (centres undefined),inactive: -7.45%
3,COC(=O)c1cccc(CN2C(=O)SC(Nc3ccc(Br)cc3)C2=O)c1 (centres undefined),inactive: 6.38%
4,CSc1cccc(NC(=O)C(c2ccccc2)N2Cc3ccccc3C2=O)c1 (centres undefined),inactive: 0.577%
5,Cc1ccc(NC(=O)CSc2nc3ccc(NC(=O)c4ccco4)cc3s2)c(C)c1,inactive: -11.2%
6,COc1cc(C(=O)NCCS(=O)(=O)N2CCN(c3ccccc3)CC2)cc(OC)c1OC,inactive: 4.31%
7,Cn1cc(S(=O)(=O)c2ccc(Cl)cc2)c(=O)c2cc(F)c(N3CCOCC3)cc21,inactive: 4.83%
8,COc1ccc(-c2cc3nc(C)c(CCC(=O)N4CCN(c5cc(C)ccc5C)CC4)c(C)n3n2)c(OC)c1,inactive: 20.6%
9,CC(C)(C)c1ccc(OCC(=O)NC(Cc2c[nH]c3ccccc23)C(=O)O)cc1 (centres undefined),inactive: -1.95%
10,CCCCn1nc(NC(=O)c2cccc(Cl)c2)c2cc3ccc(C)cc3nc21,inactive: -2.39%
11,CC(=O)Nc1ccc(NS(=O)(=O)c2cc3c4c(c2)CC(=O)N4CCC3)cc1,inactive: -14.8%
12,COc1ccc(N2CCN(S(=O)(=O)CCNC(=O)c3ccc(OC(C)C)cc3)CC2)cc1,inactive: -1.16%
13,COc1ccccc1/C=C/c1nc(C#N)c(N2CCN(c3ccccc3)CC2)o1,inactive: 19.7%
14,CN(C(=O)CSc1nc2ccc(NC(=O)COc3ccccc3Cl)cc2s1)c1ccccc1,inactive: 14.2%
15,Cc1ccc(Nc2c(-c3ccccc3O)nc3cc(C)ccn23)cc1,inactive: -22.8%
16,CCOc1ccc(NC(=O)CN2CCN(CC(=O)Nc3ccc(OC)cc3)CC2)cc1,inactive: -2.97%
17,CCC(=O)N1CCc2cc(S(=O)(=O)NCCC(=O)Nc3ccc(OC)c(OC)c3)ccc21,inactive: -5.83%
18,Cc1cccc(N2CCN(c3ncnc4c3c(-c3ccccc3)cn4-c3ccccc3)CC2C)c1 (centres undefined),inactive: 6.6%
19,COc1ccc(NC(=O)CSc2nnc3c(C)cc4ccccc4n23)cc1,inactive: 11.1%
20,COc1cc(-c2nnn(CC(=O)NCc3ccccc3)n2)cc(OC)c1OC,inactive: -5.44%
21,Cc1cnc2c(c1SCC(=O)NCc1ccc(F)cc1)c(=O)n(C)c(=O)n2C,inactive: -4.43%
22,Cc1ccc(N(CC(=O)N2CCN(c3cc(Cl)ccc3C)CC2)S(=O)(=O)c2c(C)noc2C)cc1,inactive: -7.65%
23,Clc1ccc(-c2nc3ccccn3c2Nc2ccc3c(c2)OCCO3)s1,inactive: -14.5%
24,CCc1ccc(N2CCn3c2nc2c3c(=O)n(CCc3ccccc3)c(=O)n2C)cc1,inactive: 5.2%

row,Structure (SMILES),"activity change, negative = cytotoxicity"
1,Cc1cccc(Cn2c(=O)n(-c3ccc(Cl)c(Cl)c3)c(=O)c3c(C)c(C)sc32)c1,inactive: 16.3%
2,Cc1ccc2nc(NC(=O)CSc3nccn3Cc3ccccc3)sc2c1,inactive: 0.603%
3,CCOCCc1nnc(NC(=O)C(=O)c2cc(C)n(-c3cccc(Cl)c3)c2C)s1,inactive: 10.4%
4,Cc1ccc(C)c(N2CCN(C(c3ccc(F)cc3)c3nnc(-c4ccccc4)o3)CC2)c1 (centres undefined),inactive: 2.65%
5,CCN(Cc1ccccc1)C(=O)Cn1c(=O)oc2cc(S(=O)(=O)N3CCCCCC3)ccc21,inactive: 3.26%
6,Cc1ccccc1CSc1cn(CC(=O)N2CCCC2)c2ccccc12,inactive: -2.37%
7,COc1ccc(NC(=O)c2sc3nc(C)c(C(=O)Nc4ccc(C)cc4C)c(-c4cccs4)c3c2N)cc1,inactive: -7.42%
8,CCOc1ccc(NC(=O)C(=O)NCCc2csc(-c3ccc(C)cc3)n2)cc1,inactive: 1.53%
9,Cc1noc2ncnc(NCc3ccccc3Cl)c12,inactive: -24.7%
10,COc1ccc(-n2c(=O)c3c(c4cc(OC)ccc4n3C)n(C)c2=O)cc1,inactive: 1.09%
11,CCOc1ccc(NC(=O)Cn2cc(C(=O)c3ccc(CC)cc3)c(=O)c3ccc(C)nc32)cc1,inactive: 3.05%
12,CC1=C(c2ccc(C)c(C)c2)S(=O)(=O)N=C1N1CCC(C(=O)NCc2ccc(Cl)cc2)CC1,inactive: -2.41%
13,CCN(CC)S(=O)(=O)c1ccc2c(c1)N(CC(=O)Nc1c(C)cc(C)cc1C)C(=O)C1CCCN21 (centres undefined),inactive: 3.15%
14,COc1ccc(NC(=O)CSc2nccn2Cc2ccco2)cc1OC,inactive: -7.65%
15,O=C(COc1ccccc1F)Nc1ccc(Cl)c(-c2nc3ccccc3[nH]2)c1,inactive: 6.89%
16,Cc1ccc(-n2c(=O)c3cccnc3n2CC(=O)NCc2ccc(F)cc2)cc1C,inactive: 20.1%
17,Cc1ccc(CNC(=O)CN2CCCN(Cc3ccc(F)cc3)S2(=O)=O)cc1,inactive: 6.83%
18,O=c1[nH]c2ccc(NCc3ccccc3F)cc2[nH]1,inactive: -21.4%
19,O=C(CCc1ccccc1)NCc1ccc2c(c1)CCN2C(=O)c1ccc(Cl)cc1,inactive: -11.1%
20,CCOC(=O)c1cc(NC(=O)c2ccc(OC)cc2)c(=O)n2c1oc1ccc(Cl)cc12,inactive: 22.5%
21,CCn1c(CNC(=O)C23CC4CC(CC(C4)C2)C3)nnc1SCC(=O)Nc1ccc(F)cc1,inactive: -3.74%
22,CC1Cc2ccccc2N1C(=O)CSc1nnc(-c2cccc(Cl)c2)o1 (centres undefined),inactive: 1.4%
23,CCc1cccc(NC(=O)CC2Oc3ccc(C)cc3NC2=O)c1 (centres undefined),inactive: 9.26%
24,Cc1ccc(NC(=O)CC2Sc3ccccc3NC2=O)c(Br)c1 (centres undefined),inactive: 2.1%

row,Structure (SMILES),"activity change, negative = cytotoxicity"
1,CCCCc1nc2ccccc2n1CC(=O)N(COCC)c1c(C)cccc1CC,inactive: -16.8%
2,Cc1cc(C)cc(NC(=O)C2CCN(S(=O)(=O)c3ccc4c(c3)oc(=O)n4C)CC2)c1,inactive: 5.17%
3,CCOC(=O)c1ccc(NC(=O)CSc2nc3c([nH]c4ccccc43)c(=O)n2C)cc1,inactive: -3.49%
4,Cc1cn2c(=O)cc(COc3ccccc3NC(=O)c3ccc(Cl)cc3)nc2s1,inactive: -1.35%
5,Cc1ccccc1-c1noc(-c2cc(-c3ccc(F)cc3)n[nH]2)n1,inactive: -22.8%
6,Cc1ccc(NC(=O)C2CCC(CNS(=O)(=O)c3ccc4c(c3)CCCC(=O)N4)CC2)c(C)c1 (centres undefined),inactive: -5.3%
7,COc1cc(NC(=O)c2ccc(-n3cnc4cccnc43)cc2)cc(OC)c1,inactive: 3.45%
8,Cc1ccc(S(=O)(=O)N(CC(=O)Nc2ccc3c(c2)OCO3)c2ccc(C)c(Cl)c2)cc1,inactive: 0.612%
9,Cc1cc(C)c(NC(=O)Cn2nnc(-c3nc(-c4ccccc4)no3)c2N)c(C)c1,inactive: 2.31%
10,Cc1cc(C)c2c(n1)SCCN2C(=O)Nc1ccc(C(=O)Nc2ccc(C(C)C)cc2)cc1,inactive: 15.5%
11,CCN(CC)c1ccc2cc(-c3nc(-c4cc(OC)c(OC)c(OC)c4)no3)c(=O)oc2c1,inactive: 2.4%
12,COc1ccccc1NC(=O)C1CCN(c2cnccn2)CC1,inactive: 2.42%
13,CSc1ncc(C(=O)Nc2cc(Cl)ccc2C)c(-c2ccccc2)n1,inactive: 12.2%
14,COC(=O)c1ccccc1NC(=O)Cn1c(=O)n(CCCC(=O)NCc2ccccc2OC)c(=O)c2ccccc21,inactive: 4.07%
15,Cc1ccc(C)c(NC(=O)C(c2ccccc2)N2Cc3ccccc3C2=O)c1 (centres undefined),inactive: -16.8%
16,CCOc1ccc(-n2nc(CO)c(C(=O)NCc3cccc(OC)c3)n2)cc1,inactive: -4.77%
17,CC(=O)c1ccc(NC(=O)c2nc3nc(C)cc(C(F)F)n3n2)cc1,inactive: -9.88%
18,Cc1cc(C)cc(-n2ccn(CC(=O)Nc3ccccc3F)c(=O)c2=O)c1,inactive: 7.62%
19,O=C(CCC1N=C2c3ccccc3N=C(SCc3ccc(F)cc3)N2C1=O)NC1CCCCC1 (centres undefined),inactive: 1.16%
20,COc1ccc(-c2nn(-c3cccc([N+](=O)[O-])c3)c3c2cnc2cc4c(cc23)OCO4)cc1,inactive: 1.91%
21,CC(C)c1ccc(Nc2nc3c(S(=O)(=O)c4ccc(Br)cc4)nnn3c3ccsc23)cc1,inactive: 25.3%
22,CCCN(C(=O)c1cc2c(s1)-c1c(C)cccc1OC2)c1ccc(OCC)cc1,inactive: 6.73%
23,CCSc1nnnn1-c1cccc(C(=O)O)c1,inactive: 3.52%
24,CCOC(=O)c1cc(-c2ccc(C)cc2)n(CC(=O)NC2CCCCCC2)c1C,inactive: 10.5%

row,Structure (SMILES),"activity change, negative = cytotoxicity"
1,Cc1cc2nc(-c3cccc(NC(=O)CSc4ccc(Cl)cc4)c3)oc2cc1C,inactive: -2.82%
2,O=C(/C=C/c1cn(CC(O)CN2CCCCCC2)c2ccccc12)c1ccc(Br)cc1 (centres undefined),inactive: -9.22%
3,C=CCC(CC=C)(CNC(=O)C(=O)Nc1ccc(C(=O)OCC)cc1)c1ccccc1,inactive: 18.9%
4,COC(=O)c1ccccc1NC(=O)c1cc2c(-c3ccc(OC)c(OC)c3)nn(C)c2s1,inactive: 7.41%
5,Cc1ccc(NC(=O)C(Cc2ccccc2)n2cccc2)cc1C (centres undefined),inactive: -15.7%
6,Cc1ccc(-c2nc3ccccn3c2Nc2ccc3c(c2)OCO3)o1,inactive: -21.4%
7,Cc1ccc(NC(=O)Cn2cc(S(=O)(=O)c3ccccc3)c(=O)c3cc4c(cc32)OCO4)cc1,inactive: -4.37%
8,Cc1cccc(C(=O)Nc2ccc(OCc3cc(=O)n4c5c(sc4n3)CCCC5)cc2)c1,inactive: 18%
9,Cc1c(NC(=O)Nc2ccc(C#N)cc2)c(=O)n(-c2ccccc2)n1C,inactive: 0.789%
10,COc1ccc(C2c3[nH]c4ccc(OC)cc4c3CCN2C(=O)Nc2ccccc2)cc1 (centres undefined),inactive: -15%
11,CC(C)(C)c1ccc(C(=O)NC(Cc2c[nH]c3ccccc23)C(=O)OCC(=O)c2ccc(Cl)cc2)cc1 (centres undefined),inactive: 0.904%
12,Cc1ccc(CNC(=O)CSc2nc3n[nH]c(C)c3c(=N)n2-c2cccc(C)c2)cc1,inactive: 24.2%
13,CCOc1ccc(NC(=O)Cn2cc(S(=O)(=O)N3CCN(c4ccccc4F)CC3)c3ccccc3c2=O)cc1,inactive: 1.31%
14,O=C(NCCc1csc2nc(-c3cccc(F)c3)nn12)c1ccc(Br)o1,inactive: 5.55%
15,COc1ccc(N(CC(=O)N2CCN(c3ccc(F)cc3)CC2)S(=O)(=O)c2c(C)n[nH]c2C)cc1,inactive: 1.37%
16,COc1ccc(-c2noc(-c3ccc(N4CCC(C)CC4)c([N+](=O)[O-])c3)n2)cc1OC,inactive: 3.92%
17,CCOC(=O)c1scc(-c2ccccc2)c1S(=O)(=O)N1CCN(c2ccccc2OC)CC1,inactive: 9.29%
18,COc1ccc(NC(=O)c2oc3ccc(S(=O)(=O)N(C)C4CCCCC4)cc3c2C)cc1,inactive: -5.18%
19,Cc1ccc(CNC(=O)c2cccc(-n3cnc4cccnc43)c2)cc1,inactive: -12.3%
20,CCc1ccc(NC(=O)CCNS(=O)(=O)c2ccc3c(c2)CCCC(=O)N3)cc1,inactive: 5.85%
21,COc1cccc(C(=O)Nc2c3c(nn2-c2ccc(Cl)cc2)CS(=O)(=O)C3)c1,inactive: -3.22%
22,COC(=O)c1ccc(NC(=O)c2cccc3c2C(=O)N(C2CCCCC2)C3)cc1,inactive: 6.89%
